Test results published in PubChem BioAssay (EPA / NIEHS).
For some of these results: The hits were mostly taken out for another list; the other results follow. Results filed as inconclusive are left out. The list shows a part of the results, in another mix than the full data. More than one record can exist for a structure, and the calls need not agree. Calls of active or inactive are those of the source. The calls were made as follows, unless noted: active = hit-call score of the fitted dose curve at least 0.9, where 1 is the maximum; inconclusive = response in the unintended direction; inactive = score below 0.9.

Assays:
[1] = molecular target: Retinoic acid receptor alpha (Homo sapiens) (UniProt P10276); assay: ATG_RARa_TRANS: Attagene TRANS-FACTORIAL HepG2 Assay for human Retinoic Acid Receptor alpha (RARa) (AID 2283005)
Outline: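 HepG2 transiently transfected with multiplex GAL4-UAS reporter units including a human RARa–GAL4 chimera; 24 h compound exposure. Reporter mRNA quantified by RT-PCR, 6-FAM labeling and capillary electrophoresis; gain of signal versus DMSO.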

[2] = molecular target: human Thyroid Receptor alpha (THRa1), THRA (gene 7067) (UniProt P10827); assay: ATG_THRa1_TRANS: Attagene TRANS-FACTORIAL HepG2 Assay for human Thyroid Receptor alpha (THRa1) (AID 2283014)
Outline: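 HepG2 cells transiently transfected with multiplexed GAL4-UAS reporter units for exogenous chimeric THRa1-Gal4; reporter mRNA measured 24 h after dosing by RT-PCR, 6-FAM labelling, HpaI digestion and capillary electrophoresis. Gain-of-signal fitted versus DMSO baseline.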

[3] = molecular target: human Vitamin D Receptor (VDR), VDR (gene 7421) (UniProt P11473); assay: ATG_VDR_TRANS: Attagene TRANS-FACTORIAL HepG2 Assay for human Vitamin D Receptor (VDR) (AID 2283022)
Outline: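 HepG2 cells were transiently transfected with multiple GAL4-UAS reporter units, so signal reflects exogenous chimeric receptor-Gal4 activity. After 24 h compound exposure, reporter mRNA was measured by RT-PCR, fluorescent labelling and capillary electrophoresis, fitted for gain of signal versus DMSO.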

[4] = ACEA_AR_antagonist_AUC_viability: ACEA Biosciences xCELLigence Real-Time Cell Analysis on Androgen Receptor Antagonism for Viability (AID 2283776);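 also: 22Rv1 human prostate cancer cells growing on impedance electrode plates; area under impedance growth curve at 80 h after dosing as viability; hits lower the growth signal relative to DMSO meaning cytotoxicity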
Outline: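 Impedance read-out (RT-CES): area under growth curve at 80 h post-dose, loss of signal scored vs DMSO baseline. 22Rv1 cells; 8-pt 1:4 series, top 100 uM final, ≤0.5% DMSO; biological duplicate.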

[5] = BSK_3C_Proliferation: Cell Proliferation Assessment in the BioMAP Diversity Plus: 3C Assay (AID 2283006; active = hit-call score of the fitted dose curve at least 0.9, where 1 is the maximum; inactive = score below 0.9); details: primary human endothelial cells (HUVEC)
Outline: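 Proliferation of human vascular endothelial primary cells after 48 h dosing, quantified as SRB-stained protein at 560 nm relative to DMSO.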

[6] = BSK_LPS_SRB: Viability Assessment in the BioMAP Diversity Plus: LPS Assay (AID 2283079; active = hit-call score of the fitted dose curve at least 0.9, where 1 is the maximum; inactive = score below 0.9;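 also: total protein by sulforhodamine B absorbance as a cytotoxicity measure; measured one day after compound addition; fitted in both directions against DMSO so loss or gain of signal counts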); details: primary human HUVEC with PBMC
Outline: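 Human umbilical vein endothelial cells co-cultured with PBMC (LPS system) were dosed for 24 h. Total protein was stained with 0.1% sulforhodamine B after 10% TCA fixation, read at 560 nm, and fitted bidirectionally against DMSO baseline.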

[7] = BSK_SAg_Proliferation: Cell Proliferation Assessment in the BioMAP Diversity Plus: SAg Assay (AID 2283095; active = hit-call score of the fitted dose curve at least 0.9, where 1 is the maximum; inactive = score below 0.9;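 also: relative cell number as total protein by SRB absorbance in sub-confluent culture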); details: primary human HUVEC with PBMC
Outline: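 Readout is SRB-stained protein (560 nm) in a primary human HUVEC and PBMC co-culture; sub-confluent cultures are read at 96 h. Activity is fitted bidirectionally using DMSO as baseline.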

[8] = ACEA_AR_agonist_AUC_viability: ACEA Biosciences xCELLigence Real-Time Cell Analysis on Androgen Receptor Agonism for Viability (AID 2283775);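 also: viability read 80 hours after compound addition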
Outline: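 Read-out is area under the impedance curve at 80 h post-dose in 22Rv1 cells, with DMSO as baseline and signal loss taken as reduced viability. Compounds ran in duplicate from 100 uM final.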

[9] = read-out: Interferon-inducible T-cell alpha chemoattractant (ITAC), CXCL11 (gene 6373); assay: BSK_BE3C_ITAC: BioMAP Diversity Plus: BE3C Assay for Interferon-inducible T-cell alpha chemoattractant (ITAC) Biomarker Activity (AID 2284279; active = hit-call score of the fitted dose curve at least 0.9, where 1 is the maximum; inactive = score below 0.9); details: primary human bronchial epithelial cells
Outline: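 ELISA read-out of I-TAC after 24 h chemical dosing of human lung primary bronchial epithelial cells; gain-of-signal fit vs DMSO baseline. Parallel SRB total-protein staining (0.1% SRB, 10% TCA fixation, 560 nm) assessed cytotoxicity.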

[10] = read-out: Monocyte Chemoattractant Protein-1 (MCP1), CCL2 (gene 6347); assay: BSK_hDFCGF_MCP1: BioMAP Diversity Plus: hDFCGF Assay for Monocyte Chemoattractant Protein-1 (MCP1) Biomarker Activity (AID 2284285; active = hit-call score of the fitted dose curve at least 0.9, where 1 is the maximum; inactive = score below 0.9); details: primary human foreskin fibroblasts
Outline: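 Human foreskin fibroblasts (hDFCGF system) were exposed to compound and secreted MCP-1 was measured by ELISA after 24 hours. Activity was fitted relative to DMSO. Cytotoxicity was checked by SRB total-protein staining in parallel cultures.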

[11] = BSK_3C_SRB: Viability Assessment in the BioMAP Diversity Plus: 3C Assay (AID 2283023; active = hit-call score of the fitted dose curve at least 0.9, where 1 is the maximum; inactive = score below 0.9;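 also: fitted both ways against DMSO so a hit may be signal rise or drop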); details: primary human endothelial cells (HUVEC)
Outline: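 Primary human umbilical vein endothelial cells in the 3C system were read 24 h after compound dosing. Total protein was stained with 0.1% sulforhodamine B after 10% TCA fixation and read at 560 nm, with bidirectional fitting against DMSO as baseline.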

[12] = read-out: Monocyte Chemoattractant Protein-1 (MCP1), CCL2 (gene 6347); assay: BSK_SAg_MCP1: BioMAP Diversity Plus: SAg Assay for Monocyte Chemoattractant Protein-1 (MCP1) Biomarker Activity (AID 2283090; active = hit-call score of the fitted dose curve at least 0.9, where 1 is the maximum; inactive = score below 0.9); details: actives raise or lower the signal; primary human HUVEC with PBMC
Outline: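 MCP-1 levels in the endothelial–PBMC SAg co-culture were quantified by ELISA at 24 h post-dosing; both increases and decreases versus DMSO scored. Cytotoxicity monitored by SRB total protein in parallel cultures.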

[13] = molecular target: Retinoic acid receptor RXR-alpha (Homo sapiens) (UniProt P19793); assay: OT_NURR1_NURR1RXRa_0480: Odyssey Thera (OT) 8-hour HEK293T Protein Complementation Assay for Nurr1/retinoid X receptor (RXR) (AID 2283385)
Outline: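 Compounds are applied to HEK293T cells carrying Nurr1 and RXRα linked to reporter fragments. After 8 h, fluorescence intensity reports heterodimer formation, with DMSO as baseline.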

[14] = CCTE_Shafer_MEA_dev_network_spike_number: CCTE's Neural Network Formation Assay for Number of Network Spikes, Shafer Lab (AID 2284048; active = hit-call score of the fitted dose curve at least 0.9, where 1 is the maximum; inactive = score below 0.9;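 also: synchronized bursts across electrodes counted on days 5 7 9 12 and integrated as AUC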)
Outline: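 Primary rat cortical neurons on PEI/laminin 48-well MEA plates, dosed from plating day 0 for 12 days, renewed at DIV 5 and 9. Network spike counts recorded DIV 5, 7, 9, 12, collapsed as trapezoidal AUC; DMSO baseline.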

Measured: AC50

Sequence of UniProt P10276 (P10276 whole entry, looked up, the tested form may be a part): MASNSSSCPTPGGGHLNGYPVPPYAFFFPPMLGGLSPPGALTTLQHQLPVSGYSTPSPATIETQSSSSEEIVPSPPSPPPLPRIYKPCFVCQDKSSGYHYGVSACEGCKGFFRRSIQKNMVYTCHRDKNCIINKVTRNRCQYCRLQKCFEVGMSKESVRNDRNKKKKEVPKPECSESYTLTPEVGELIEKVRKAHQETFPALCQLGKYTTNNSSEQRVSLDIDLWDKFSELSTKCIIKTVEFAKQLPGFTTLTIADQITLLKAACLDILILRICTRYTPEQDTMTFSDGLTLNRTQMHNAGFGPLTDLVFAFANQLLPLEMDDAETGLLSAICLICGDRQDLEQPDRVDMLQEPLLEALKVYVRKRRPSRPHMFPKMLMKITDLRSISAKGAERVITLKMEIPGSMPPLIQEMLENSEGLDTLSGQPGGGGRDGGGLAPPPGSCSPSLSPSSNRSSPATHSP
Sequence of UniProt P11473 (P11473 whole entry, looked up, the tested form may be a part): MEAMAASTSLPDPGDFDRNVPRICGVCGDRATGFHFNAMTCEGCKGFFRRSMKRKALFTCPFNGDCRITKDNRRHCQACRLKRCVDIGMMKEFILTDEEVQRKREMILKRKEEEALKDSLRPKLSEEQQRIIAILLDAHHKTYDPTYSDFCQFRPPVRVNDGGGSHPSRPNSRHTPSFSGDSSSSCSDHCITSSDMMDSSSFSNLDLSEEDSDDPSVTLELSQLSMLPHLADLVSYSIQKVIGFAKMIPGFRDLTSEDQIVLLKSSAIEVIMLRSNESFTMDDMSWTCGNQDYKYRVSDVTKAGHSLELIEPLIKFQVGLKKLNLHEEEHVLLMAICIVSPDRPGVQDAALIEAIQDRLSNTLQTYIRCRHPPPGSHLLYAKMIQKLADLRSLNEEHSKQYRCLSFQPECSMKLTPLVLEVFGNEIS
Sequence of UniProt P10827 (P10827 whole entry, looked up, the tested form may be a part): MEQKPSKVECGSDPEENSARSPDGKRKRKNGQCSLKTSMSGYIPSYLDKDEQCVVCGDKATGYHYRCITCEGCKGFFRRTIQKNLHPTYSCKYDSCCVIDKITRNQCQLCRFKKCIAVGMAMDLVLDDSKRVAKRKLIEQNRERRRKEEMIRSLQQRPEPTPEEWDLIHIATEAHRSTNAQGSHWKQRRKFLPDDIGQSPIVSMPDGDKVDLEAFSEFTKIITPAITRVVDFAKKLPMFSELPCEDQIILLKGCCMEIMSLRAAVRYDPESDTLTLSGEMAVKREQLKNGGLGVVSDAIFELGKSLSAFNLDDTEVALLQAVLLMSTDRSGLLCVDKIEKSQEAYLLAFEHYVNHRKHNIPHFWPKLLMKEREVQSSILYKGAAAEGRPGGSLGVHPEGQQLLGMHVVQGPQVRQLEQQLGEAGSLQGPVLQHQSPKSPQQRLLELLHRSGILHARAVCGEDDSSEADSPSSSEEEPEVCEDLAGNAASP
Sequence of UniProt P19793 (P19793 whole entry, looked up, the tested form may be a part): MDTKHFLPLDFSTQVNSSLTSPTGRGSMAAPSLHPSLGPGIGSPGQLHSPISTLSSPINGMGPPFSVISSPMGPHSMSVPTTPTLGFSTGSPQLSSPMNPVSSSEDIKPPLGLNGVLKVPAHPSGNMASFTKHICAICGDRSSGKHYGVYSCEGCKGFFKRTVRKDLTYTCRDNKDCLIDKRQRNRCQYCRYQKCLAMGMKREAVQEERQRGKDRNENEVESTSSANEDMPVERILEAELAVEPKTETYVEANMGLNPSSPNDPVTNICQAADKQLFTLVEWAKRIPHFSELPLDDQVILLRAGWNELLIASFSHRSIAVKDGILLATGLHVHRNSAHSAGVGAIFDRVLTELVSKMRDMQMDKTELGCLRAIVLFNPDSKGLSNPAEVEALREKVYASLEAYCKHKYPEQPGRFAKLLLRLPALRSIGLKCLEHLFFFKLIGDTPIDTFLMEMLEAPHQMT

CC(C)c1ccc(O)c(C(C)C)c1
inactive: [1] | [2] | [3] | [4]

CCCCC(CC)COP(=O)(O)OCC(CC)CCCC (stereo unspecified)
inactive: [5] | [6]
active: [7] 24 µM | [8] 16.6 µM | [9] 29.8 µM | [10] 36.8 µM

C[C@]12CC[C@@H]3c4ccc(O)cc4CC[C@H]3[C@@H]1CC[C@@H]2O
active: [11] 12 µM
inactive: [1] | [3] | [12] | [13] | [14]
